Laboratory results from publication PMC11724110.
These are yes or no findings as the source states them, for the method shown. Binding seen in cells or lysates may run through a third protein. Some entries that bind do so weakly or less than the wild type. For some of these results: Where a sequence is shown, tags or fusion partners need not be part of it.

Sequences of proteins named here, by UniProt entry; tags and fusion partners are left off. A change or cut given only in a name is not applied to a line headed by its entry. A line that says so, or that is headed by a name, gives the form on record, which may keep a tag or linker. Residues count along the entry.
UniProt O35433: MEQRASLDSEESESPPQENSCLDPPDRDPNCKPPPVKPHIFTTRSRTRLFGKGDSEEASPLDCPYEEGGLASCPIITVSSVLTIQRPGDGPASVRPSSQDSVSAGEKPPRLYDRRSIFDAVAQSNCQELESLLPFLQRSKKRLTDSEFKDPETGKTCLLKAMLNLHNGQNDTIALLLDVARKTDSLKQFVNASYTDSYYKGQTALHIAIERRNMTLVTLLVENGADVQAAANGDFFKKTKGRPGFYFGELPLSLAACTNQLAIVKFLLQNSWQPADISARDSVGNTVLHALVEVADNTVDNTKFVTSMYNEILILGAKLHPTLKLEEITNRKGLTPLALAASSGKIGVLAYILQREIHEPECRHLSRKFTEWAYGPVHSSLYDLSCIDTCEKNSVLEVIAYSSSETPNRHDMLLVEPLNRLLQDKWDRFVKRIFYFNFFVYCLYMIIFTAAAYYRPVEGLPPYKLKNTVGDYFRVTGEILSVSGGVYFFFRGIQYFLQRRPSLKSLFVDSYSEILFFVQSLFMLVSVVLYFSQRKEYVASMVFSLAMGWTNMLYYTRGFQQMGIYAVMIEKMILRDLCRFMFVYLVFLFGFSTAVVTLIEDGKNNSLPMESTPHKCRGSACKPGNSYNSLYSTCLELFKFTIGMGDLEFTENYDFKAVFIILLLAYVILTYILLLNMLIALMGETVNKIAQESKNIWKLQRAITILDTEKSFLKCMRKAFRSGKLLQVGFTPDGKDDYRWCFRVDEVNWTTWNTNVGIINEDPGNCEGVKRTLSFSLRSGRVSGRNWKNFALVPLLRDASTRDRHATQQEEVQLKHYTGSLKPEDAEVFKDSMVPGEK
Flag-tagged TRPV1 N-terminus (aa 1-432): residues 1-432 of O35433
Flag-tagged TRPV1 C-terminus (aa 687-839): residues 687-838 of O35433
UniProt Q704Y3: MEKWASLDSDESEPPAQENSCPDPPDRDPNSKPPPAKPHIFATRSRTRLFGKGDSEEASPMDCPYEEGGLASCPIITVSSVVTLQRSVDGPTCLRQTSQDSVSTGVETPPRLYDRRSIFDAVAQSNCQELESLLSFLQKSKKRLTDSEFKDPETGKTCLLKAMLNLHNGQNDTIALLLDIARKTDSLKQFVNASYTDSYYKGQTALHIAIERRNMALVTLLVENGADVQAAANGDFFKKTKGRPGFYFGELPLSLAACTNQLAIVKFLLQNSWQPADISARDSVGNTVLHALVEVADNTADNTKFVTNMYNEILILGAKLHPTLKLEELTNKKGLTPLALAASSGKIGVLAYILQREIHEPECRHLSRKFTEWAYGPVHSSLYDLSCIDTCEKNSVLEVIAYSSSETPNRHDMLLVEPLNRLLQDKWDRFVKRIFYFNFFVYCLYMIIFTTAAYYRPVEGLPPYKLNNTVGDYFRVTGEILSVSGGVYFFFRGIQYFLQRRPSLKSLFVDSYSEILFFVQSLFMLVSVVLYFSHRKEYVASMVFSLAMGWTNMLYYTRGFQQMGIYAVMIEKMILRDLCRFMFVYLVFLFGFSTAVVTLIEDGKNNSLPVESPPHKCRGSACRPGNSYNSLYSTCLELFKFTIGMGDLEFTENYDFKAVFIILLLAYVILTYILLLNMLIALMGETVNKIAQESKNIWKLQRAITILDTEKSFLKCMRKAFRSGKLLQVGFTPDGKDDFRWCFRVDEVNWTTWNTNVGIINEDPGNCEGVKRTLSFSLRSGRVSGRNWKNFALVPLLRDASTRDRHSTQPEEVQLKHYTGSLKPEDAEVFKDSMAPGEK
UniProt P59267: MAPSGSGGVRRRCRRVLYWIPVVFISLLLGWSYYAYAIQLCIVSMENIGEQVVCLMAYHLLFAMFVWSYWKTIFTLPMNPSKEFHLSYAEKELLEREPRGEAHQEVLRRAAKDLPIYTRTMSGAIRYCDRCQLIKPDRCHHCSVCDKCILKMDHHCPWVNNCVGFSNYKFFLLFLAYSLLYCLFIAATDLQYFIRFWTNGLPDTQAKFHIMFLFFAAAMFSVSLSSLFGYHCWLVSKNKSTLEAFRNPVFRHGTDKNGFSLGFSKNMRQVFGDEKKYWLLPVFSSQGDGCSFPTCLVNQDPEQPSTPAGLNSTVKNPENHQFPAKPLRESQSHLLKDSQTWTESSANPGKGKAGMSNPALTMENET
UniProt Q80TN5: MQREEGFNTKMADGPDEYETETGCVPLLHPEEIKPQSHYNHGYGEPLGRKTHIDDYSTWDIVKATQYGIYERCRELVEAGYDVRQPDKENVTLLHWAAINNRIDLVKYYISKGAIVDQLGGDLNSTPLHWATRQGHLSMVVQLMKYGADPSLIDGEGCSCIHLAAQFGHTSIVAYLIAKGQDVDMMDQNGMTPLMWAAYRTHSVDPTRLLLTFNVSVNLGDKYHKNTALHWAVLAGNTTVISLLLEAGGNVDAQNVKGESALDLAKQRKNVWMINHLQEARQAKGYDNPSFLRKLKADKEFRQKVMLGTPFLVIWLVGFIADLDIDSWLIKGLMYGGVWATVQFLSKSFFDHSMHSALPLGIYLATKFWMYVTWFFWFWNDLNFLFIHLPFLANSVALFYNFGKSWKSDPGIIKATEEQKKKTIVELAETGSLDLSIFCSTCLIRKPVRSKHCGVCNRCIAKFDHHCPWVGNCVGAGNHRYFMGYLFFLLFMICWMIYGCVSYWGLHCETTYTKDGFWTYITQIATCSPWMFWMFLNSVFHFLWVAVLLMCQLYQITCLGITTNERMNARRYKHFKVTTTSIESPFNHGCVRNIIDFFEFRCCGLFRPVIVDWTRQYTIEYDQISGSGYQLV

Tests used:
[1] = molecular target: FLAG-tagged TRPV1 (full length) (Rattus norvegicus) (UniProt O35433); experiment: co-IP; HEK293T cells co-transfected with FLAG-tagged TRPV1 (or truncates) and GFP-tagged ZDHHCs; immunoprecipitation with anti-Flag antibody; NP-40 lysis buffer, washes with 500 mM NaCl; immunoblotting
[2] = molecular target: Flag-tagged TRPV1 C-terminus (aa 687-839) (Rattus norvegicus) (UniProt O35433); experiment: as above
[3] = molecular target: Flag-tagged TRPV1 N-terminus (aa 1-432) (Rattus norvegicus) (UniProt O35433); experiment: as above
[4] = molecular target: TRPV1 (endogenous, mouse DRG neurons) (mouse (endogenous in DRG neurons)) (UniProt Q704Y3); experiment: co-IP; native mouse DRG lysate (NP-40 lysis buffer); pulled down with anti-TRPV1 antibody, IgG as negative control; blotted with anti-TRPV1 and anti-ZDHHC4
[5] = molecular target: CsfGFP-tagged TRPV1 (Rattus norvegicus) (UniProt O35433); experiment: split reporter; BiFC with split GFP fragments (CsfGFP, NsfGFP) in HEK293T cells, fixed, confocal imaging

binding [1] | Molecule | other results
no binding | GFP-tagged ZDHHC2 (from UniProt P59267 1-366) (enzyme) | –
no binding | GFP-tagged ZDHHC17 (from UniProt Q80TN5 1-632) (enzyme) | –
no binding | GFP-tagged ZDHHC18 (enzyme, UniProt Q5Y5T2 1-380) MKDCEYQQISPGAAPPPASPGARRPGPAAPPAPSPGPAPGAPRWSGSGSGSGSLGRRPRRKWEVFPGRNRFYCGGRLMLAGHGGVFALTLLLILSTTILFFVFDCPYLARTLTLAIPIIAAILFFFVMSCLLQTSFTDPGILPRATICEAAALEKQIDNTGSSTYRPPPRTREVMINGQTVKLKYCFTCKMFRPPRTSHCSVCDNCVERFDHHCPWVGNCVGRRNYRFFYAFILSLSFLTAFIFACVVTHLTLLSQGSNFLSALKKTPASVLELVICFFSIWSILGLSGFHTYLVASNLTTNEDIKGSWSSKRGGEASVNPYSHKSIITNCCAVLCGPLPPSLIDRRGFVQSDTALPSPIRSDDPACGAKPDASMVGGHP | –
binds | GFP-tagged ZDHHC4 (enzyme, UniProt Q9D6H5 1-343) MDFLVLFLFYLAFLLICVVLICIFTKSQRLKAVVLGGAQVCSRVIPQCLQRAVQTLLHQLFHTRHPTFIVLHLLLQGLVYAEYTCEVFGYCRELEFSLPYLLLPYVLLSVNLVFFTLTCAANPGTITKANESFLLQVYKFDDVMFPKNSRCPTCDLRKPARSKHCRLCDRCVHRFDHHCVWVNNCIGAWNTRYFLIYLLTLTASAATIATVTAAFLLRLVTVSDLYQETYLDDVGHFQAVDTVFLIQHLFLAFPRIVFLLGFVIVLSMLLAGYLCFALYLAATNQTTNEWYKGDWAWCQRWPLVAWSPSAEPRIHQNIHSHGFRSNLREIFLPATPSYKKKEK | binding [2]: binds; binding [3]: binds
– | ZDHHC4 (endogenous, mouse DRG neurons) (enzyme, UniProt Q9D6H5 1-343) MDFLVLFLFYLAFLLICVVLICIFTKSQRLKAVVLGGAQVCSRVIPQCLQRAVQTLLHQLFHTRHPTFIVLHLLLQGLVYAEYTCEVFGYCRELEFSLPYLLLPYVLLSVNLVFFTLTCAANPGTITKANESFLLQVYKFDDVMFPKNSRCPTCDLRKPARSKHCRLCDRCVHRFDHHCVWVNNCIGAWNTRYFLIYLLTLTASAATIATVTAAFLLRLVTVSDLYQETYLDDVGHFQAVDTVFLIQHLFLAFPRIVFLLGFVIVLSMLLAGYLCFALYLAATNQTTNEWYKGDWAWCQRWPLVAWSPSAEPRIHQNIHSHGFRSNLREIFLPATPSYKKKEK | binding [4]: binds
– | NsfGFP-tagged ZDHHC4 (enzyme, UniProt Q9D6H5 1-343) MDFLVLFLFYLAFLLICVVLICIFTKSQRLKAVVLGGAQVCSRVIPQCLQRAVQTLLHQLFHTRHPTFIVLHLLLQGLVYAEYTCEVFGYCRELEFSLPYLLLPYVLLSVNLVFFTLTCAANPGTITKANESFLLQVYKFDDVMFPKNSRCPTCDLRKPARSKHCRLCDRCVHRFDHHCVWVNNCIGAWNTRYFLIYLLTLTASAATIATVTAAFLLRLVTVSDLYQETYLDDVGHFQAVDTVFLIQHLFLAFPRIVFLLGFVIVLSMLLAGYLCFALYLAATNQTTNEWYKGDWAWCQRWPLVAWSPSAEPRIHQNIHSHGFRSNLREIFLPATPSYKKKEK | binding [5]: binds
no binding | GFP-tagged ZDHHC12 (enzyme, UniProt Q8VC90 1-267) MALWPPLNSGMLVRTGHTVLTWGITLVLFLHDTELRQWEEQGELLLPLTFLLLVLSSLLLYLAVSLMDPGYVTTQPQPQGEPKEEQAAMVPQAVPLRRCRHCLVLQPLRARHCRDCRRCVRRYDHHCPWMENCVGERNHPLFVAYLALQLVVLLWGLCLAWSGLQFFQPWGLWLRSTGLLFTTFLLLSFFALVVALLLASHLYLVARNTTTWEFISSHRIAYLRQRTSNPFDRGPTRNLAHFFCGWPSGPWETLSAEEEEEGSSQVV | –
no binding | GFP-tagged ZDHHC15 (enzyme, UniProt Q8BGJ0 1-337) MRRGWKMALSGGLRCCRRVLSWVPVLVIVLVVLWSYYAYVFELCLVTVLSPAEKVIYLILYHAIFVFFAWTYWKSIFTLPQQPNQKFHLSYTDKERYKNEERPEVQKQMLVDMAKKLPVYTRTGSGAVRFCDRCHLIKPDRCHHCSVCAMCVLKMDHHCPWVNNCIGFSNYKFFLQFLAYSVLYCLYIATTVFSYFIKYWRGELPSVRSKFHVLFLLFVACMFFVSLVILFGYHCWLVSRNKTTLEAFCTPVFTSGPEKNGFNLGFIKNIQQVFGDNKKFWLIPIGSSPGDGHSFPMRSMNESQNPLLANEEPWEDNEDDSRDYPEGSSSLAVESET | –
